# Measured values: the supplement of paper PMC3334620
# In all, about 33,000 sequences were measured (“E-score (-0.5 to 0.5)”: median about -0.035, highest 2% from about 0.34 on). Some of the results follow.
# Molecular target: T1, Mot3 (UniProt P54785)
# T1 sequence: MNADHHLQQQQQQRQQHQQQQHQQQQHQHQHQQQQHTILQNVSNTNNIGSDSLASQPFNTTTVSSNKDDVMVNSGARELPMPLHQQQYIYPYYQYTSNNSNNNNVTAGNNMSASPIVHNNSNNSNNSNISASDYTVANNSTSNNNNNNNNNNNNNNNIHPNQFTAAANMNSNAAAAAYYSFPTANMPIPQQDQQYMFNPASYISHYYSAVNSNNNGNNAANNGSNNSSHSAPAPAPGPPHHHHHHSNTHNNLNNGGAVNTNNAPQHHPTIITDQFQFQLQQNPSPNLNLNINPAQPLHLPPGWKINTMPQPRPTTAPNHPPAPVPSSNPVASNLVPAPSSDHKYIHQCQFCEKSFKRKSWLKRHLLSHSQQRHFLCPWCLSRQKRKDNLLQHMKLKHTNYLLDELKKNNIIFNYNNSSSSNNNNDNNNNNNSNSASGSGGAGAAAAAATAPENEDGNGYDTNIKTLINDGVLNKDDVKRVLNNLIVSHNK
# Test: PBM E-score (8-mer binding enrichment) (E-score (-0.5 to 0.5)); higher = stronger / more preferred TF binding; most listed sequences are background and not binding sites
# Details: protein concentration: 200 nM; construct: GST-full length
# Description: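 Universal 'all 10-mer' protein binding microarrays (Agilent AMADID 015681) probed with GST-tagged S. cerevisiae TFs (full-length or DBD) made by in vitro transcription/translation (PURExpress), about 100-200 nM. Bound TF was detected with fluorescent anti-GST. Each ungapped 8-mer (which stands for itself and its reverse complement) is scored by the PBM enrichment score (E-score), a modified Wilcoxon-Mann-Whitney statistic from -0.5 to +0.5, computed with the Universal PBM Analysis Suite. Scale: above 0.35 generally sequence-specific binding.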
row,Sequence,PBM E-score
1,GCACAACC,-0.0592
2,ACCCTACT,-0.0888
3,AAGGGGCA,-0.0498
4,GGGGTTTA,0.00656
5,TACTCCGA,-0.191
6,CCACCGCG,-0.11
7,TACGTCGA,0.0529
8,ACAAGGCT,0.111
9,CTAACATC,0.16
10,CCAGTGAG,-0.284
11,CCTGTCCA,-0.249
12,AATCGTCC,0.0205
13,TAAAGCCA,-0.0175
14,CCAAGTCC,-0.272
15,TCATGTCA,0.283
16,AAGGCGCC,0.304
17,CTTAAGAA,0.103
18,GAGCCTGC,0.389
19,AAACGGAC,-0.243
20,CATTATAC,0.128
21,CTCATTCA,-0.0988
22,ATGAGCCC,-0.225

row,Sequence,PBM E-score
1,GCGTTGGA,0.0942
2,CCAGCCTC,-0.185
3,ACGTCCTG,-0.036
4,CAGAATAG,0.148
5,GCCCGGAA,-0.177
6,CTGGGATC,-0.191
7,TGATACCA,-0.119
8,CTTCGGAC,-0.021
9,AGACAAGC,-0.087
10,ATCGCCCA,-0.238
11,CTGACGTC,-0.154
12,AAACGCTC,-0.0242
13,CGTAGCAC,-0.00701
14,GAGAGATC,-0.139
15,AATTGGGT,0.145
16,TCGATGCA,-0.159
17,AAATCGAC,0.0912
18,AGTTGGTG,-0.171
19,CCTCATAA,0.0289
20,ACATGGCT,0.147
21,ATGGATTA,-0.0764
22,ATCATTGC,-0.127

row,Sequence,PBM E-score
1,CCACCGGA,-0.257
2,ACAACCAC,0.00901
3,GCGGCGAC,-0.282
4,CCTCGCAC,-0.0626
5,TCTGACCA,0.0289
6,ACTCTGGG,0.00618
7,AGCGCTCG,-0.161
8,TCCGTAAA,0.101
9,GTAGAGCA,0.0931
10,ACACGACA,0.316
11,AGCCGGCG,-0.301
12,CTTCTCAC,-0.125
13,CGACCCAG,-0.157
14,ACAACGAT,0.155
15,CAGGCCGA,-0.145
16,CCCTCGGA,-0.143
17,CCTGCGGA,0.16
18,TAGGTACA,0.36
19,CAACATCA,0.176
20,ACGTTTAT,0.0624
21,AGCAGACG,-0.277
22,GTCTTTGA,-0.083

row,Sequence,PBM E-score
1,CCACGATC,0.0336
2,CGCTGCCA,-0.294
3,ACCAAAAT,0.0829
4,CATGCATC,-0.0432
5,CGATAACG,0.0474
6,CAGATACA,0.129
7,AGGCCAGC,-0.0993
8,GATAACGC,0.159
9,CTCAAGTA,0.042
10,ACCCCGGC,-0.193
11,ACCCCCCC,-0.471
12,ATGGATAG,-0.112
13,ATAGACAA,0.0462
14,AGTTGCGC,-0.0198
15,GGGGACAA,0.022
16,CACGAGTA,0.154
17,AACTACTG,-0.107
18,GAATACGA,0.136
19,TCACATGA,0.146
20,AACAGGGT,-0.0595
